{"source": "PubChem BioAssay AID624296", "about": "(National Center for Advancing Translational Sciences (NCATS), 2012)", "note": "Among all 350,000 compounds or so, about 9,900 (2.8%) were called active. Inconclusive results, whose numbers are uncertain, are shown with a selection of clear calls. Calls follow the shape of the dose curve; as a rule, active = well fitted activation curve with a large enough effect; inconclusive = small, poorly fitted or top-dose-only effect; inactive = no such curve, though single readings can be large or run the other way. Potencies of inconclusive entries are left out as doubtful fits. Potency is read from the fitted curve at half-maximal effect; tags tell the direction and shape of the fitted curve.", "data": [{"assay": "A quantitative high throughput screen for small molecules that induce DNA re-replication in MCF 10a normal breast cells; also: nearly all actives have a fitted effect of over 50% in size; as to activity, positive = re-replication: % of control where 0% means no effect.", "details": "MCF 10A DNA re-replication, Hoechst nuclear intensity, 48 h; activity, positive = re-replication: at 46.1 µM (top of the series)", "values": [{"smiles": "Cc1ccc(OCC(O)CN2CCN(Cc3ccc4c(c3)OCO4)CC2)c(C)c1", "note": "(stereo unspecified)", "Potency": "inconclusive [activator, single point]"}, {"smiles": "CCn1nc(NC(=O)C2CCCO2)c2cc3cccc(C)c3nc21", "note": "(stereo unspecified)", "Potency": "inconclusive [activator, single point]"}, {"smiles": "O=C1CCC/C=C\\C[C@H](CC(=O)N(CCO)Cc2ccccc2)C(=O)N2CCC[C@@H]2CO1", "Potency": "inconclusive [activator, full curve]"}, {"smiles": "COc1ccccc1NC(=O)CN(c1ccccc1C)S(C)(=O)=O", "Potency": "inconclusive [activator, single point]"}, {"smiles": "CCC(C)n1c(-c2cccs2)nc2nc3ccccc3nc21", "note": "(stereo unspecified)", "Potency": "inconclusive [activator, partial curve]"}, {"smiles": "COc1ccc(-c2onc(C)c2-c2cnn(-c3ccccc3)c2)c(O)c1", "Potency": "inconclusive [activator, partial curve, poor fit]"}, {"smiles": "Cc1cc(C(C)(C)C)ccc1OCCN1CCCC1", "Potency": "inconclusive [activator, partial curve, poor fit]"}, {"smiles": "Cc1cccc(C)c1NC(=O)CN1CCN(C(=O)CNC(=O)c2ccc(N3CCCC3=O)cc2)CC1", "Potency": "inconclusive [activator, partial curve, poor fit]"}, {"smiles": "c1ccc(-c2nc3nc4ccccc4nc3n2Cc2ccco2)cc1", "Potency": "inconclusive [activator, full curve, poor fit]"}, {"smiles": "COc1ccc(-c2cc(C(=O)N3CCc4ccccc4C3)no2)cc1OC", "Potency": "inconclusive [activator, partial curve, poor fit]"}, {"smiles": "COc1ccc(-c2csc(-c3ccccc3)n2)c(OC)c1", "Potency": "inconclusive [activator, single point]"}, {"smiles": "COc1ccc(S(=O)(=O)N2CCSC2c2ccc(OC)c(OC)c2)cc1", "note": "(stereo unspecified)", "Potency": "inconclusive [activator, partial curve, poor fit]"}, {"smiles": "COC1=C(Nc2ccc(O)cc2)C(=O)c2ccccc2C1=O", "Potency": "inconclusive [activator, partial curve]"}, {"smiles": "CCCC1=NN2C(=N)/C(=C\\c3cc(C)n(-c4cc(C)cc(C)c4)c3C)C(=O)N=C2S1", "Potency": "active: 20.6 µM"}, {"smiles": "N/C(Cc1ccc([N+](=O)[O-])cc1)=N\\OC(=O)c1ccccc1Br", "activity, positive = re-replication": "inactive: -0.188%"}, {"smiles": "O=C(OCCN1C(=O)c2ccccc2C1=O)[C@@H]1CC(O)CN1S(=O)(=O)c1ccccc1[N+](=O)[O-]", "note": "(stereo partly specified)", "activity, positive = re-replication": "inactive: 5.67%"}, {"smiles": "COc1ccc(-c2cc3nc(CCl)[nH]c(=O)c3s2)cc1", "Potency": "inconclusive [activator, single point]"}, {"smiles": "COc1ccc(-n2c(C)cc(C(=O)CN3CCC(C)CC3)c2C)cc1", "Potency": "active: 0.58 µM"}, {"smiles": "CCCOc1cccc(-c2nn(-c3ccccc3)cc2/C=C(\\C#N)C(=O)NCCCn2ccnc2)c1", "Potency": "inconclusive [activator, single point]"}, {"smiles": "CCc1ccc(S(=O)(=O)/N=C2\\C=C(Nc3ccc(C(=O)O)cc3)C(=O)c3ccccc32)cc1", "Potency": "active: 4.61 µM"}, {"smiles": "CCc1nn2c(N3CCOCC3)cc(C)nc2c1-c1ccccc1", "activity, positive = re-replication": "inactive: 2.53%"}, {"smiles": "O=C(NC1CCCCC1)c1cccnc1Sc1ccccc1", "Potency": "inconclusive [activator, partial curve, poor fit]"}, {"smiles": "COc1cc(Cl)ccc1OCc1cc(C(=O)N2CCCCC2c2cccnc2)no1", "note": "(stereo unspecified)", "activity, positive = re-replication": "inactive: -22.1%"}, {"smiles": "COc1cccc(C(=O)/C=C/Nc2ccc(S(=O)(=O)Nc3ncccn3)cc2)c1", "Potency": "inconclusive [activator, single point]"}, {"smiles": "Cc1ccc2c(c1)C(O)(c1c(C)[nH]c3ccccc13)C(=O)N2", "note": "(stereo unspecified)", "Potency": "inconclusive [activator, single point]"}, {"smiles": "COc1ccc(CCn2c(C)cc(C(=O)CSc3nnc(N)s3)c2C)cc1", "activity, positive = re-replication": "inactive: 12.9%"}, {"smiles": "CCCCC(=O)Nc1cccc(NC(=O)CC)c1", "activity, positive = re-replication": "inactive: -0.374%"}, {"smiles": "O=C(c1cc(S(=O)(=O)N2CCOCC2)ccc1Cl)N1CCN(c2ccccn2)CC1", "activity, positive = re-replication": "inactive: -24.7%"}, {"smiles": "CC1(C)CC(=O)C(C(C#Cc2ccccc2)C2=C(O)CC(C)(C)CC2=O)=C(O)C1", "Potency": "inconclusive [activator, single point]"}, {"smiles": "Cc1nn2c(C)c(C(=O)Nc3ccccc3)cnc2c1-c1ccccc1", "Potency": "inconclusive [activator, partial curve, poor fit]"}, {"smiles": "Cc1cc([N+](=O)[O-])ccc1-c1ccc(/C=N/NC(=O)Cc2ccccc2)o1", "Potency": "inconclusive [activator, partial curve, poor fit]"}, {"smiles": "CCOc1cc(/C=N/NC(=O)C2CC2)ccc1OC(C)C", "activity, positive = re-replication": "inactive: -0.556%"}, {"smiles": "COCCNC(=O)CSC1=N/C(=C/c2ccc(Cl)c(Cl)c2)C(=O)N1c1ccccc1F", "Potency": "active: 9.2 µM"}, {"smiles": "CCC1=NN(C(=O)C(=O)Nc2ccc(Br)cc2)C(O)(C(F)(F)F)C1", "note": "(stereo unspecified)", "Potency": "inconclusive [activator, single point]"}, {"smiles": "O=C(c1ccco1)N1CCN(Cc2cc(=O)oc3cc(O)ccc23)CC1", "Potency": "inconclusive [activator, single point]"}, {"smiles": "CC1CCN(c2ccc(N3C(=O)C4CCCCC4C3=O)cc2[N+](=O)[O-])CC1", "note": "(stereo unspecified)", "Potency": "inconclusive [activator, single point]"}, {"smiles": "Cc1ccc(N/C=C/C(=O)C(C)(C)C)c(O)c1", "Potency": "inconclusive [activator, partial curve, poor fit]"}, {"smiles": "O=C(COC(=O)c1ccc(=O)[nH]c1)Nc1cccc(S(=O)(=O)N2CCOCC2)c1", "activity, positive = re-replication": "inactive: 2.92%"}, {"smiles": "O=C(CN(c1cccc(C(F)(F)F)c1)S(=O)(=O)c1ccc(Cl)c([N+](=O)[O-])c1)NCc1ccccc1Cl", "Potency": "active: 4.61 µM"}, {"smiles": "CC(=O)Nc1ccc(N(C(=O)c2ccccn2)C(C(=O)NC2CCCCC2)c2ccc(F)cc2)cc1", "note": "(stereo unspecified)", "Potency": "inconclusive [activator, full curve, poor fit]"}, {"smiles": "NC(=O)C1Cc2ccccc2CN1C(=O)c1cc(C2CC2)nn1-c1ccccc1", "note": "(stereo unspecified)", "activity, positive = re-replication": "inactive: 8.5%"}, {"smiles": "Cc1cccc(NS(=O)(=O)c2cc(C(=O)N3CCN(C)CC3)ccc2C)c1", "Potency": "inconclusive [activator, full curve, poor fit]"}, {"smiles": "Cc1ccc(/C=C/C(=O)Nc2cc(S(=O)(=O)N3CCCCCC3)ccc2OCC(F)(F)F)o1", "Potency": "inconclusive [activator, partial curve, poor fit]"}, {"smiles": "CCCOc1ccc(C(F)(F)F)cc1NS(=O)(=O)c1ccc(Cl)nc1", "Potency": "inconclusive [activator, partial curve, poor fit]"}, {"smiles": "Cn1c(/C(C#N)=C/c2ccc(-c3ccc(S(N)(=O)=O)cc3)o2)nc2ccccc21", "Potency": "inconclusive [activator, full curve, poor fit]"}, {"smiles": "COc1cc(/C=N/NC(=O)c2cc(-c3ccccc3OC(C)C)nc3ccccc23)ccc1O", "Potency": "active: 10.3 µM"}, {"smiles": "CCCCCc1nc2sc3c(c2c(=O)n1NC(=O)c1ccc([N+](=O)[O-])cc1)CC(C)(C)OC3", "Potency": "inconclusive [activator, partial curve]"}, {"smiles": "COc1ccc2c(c1)C=C(CN1CCC(CO)(CCc3ccccc3)CC1)CO2", "Potency": "inconclusive [activator, single point]"}, {"smiles": "CC(=O)NCC1CCCN(C(=O)c2ccc(OC3CCN(Cc4ccccn4)CC3)cc2)C1", "note": "(stereo unspecified)", "activity, positive = re-replication": "inactive: 1.23%"}, {"smiles": "COc1cc2c(cc1OC)C(c1ccc(-c3ccc(Cl)cc3Cl)o1)=NCC2", "Potency": "inconclusive [activator, partial curve, poor fit]"}, {"smiles": "C=C(C)Cn1c(SCC(=O)N/N=C/c2c(O)ccc3ccccc23)nc2ccccc2c1=O", "Potency": "inconclusive [activator, single point]"}, {"smiles": "COC(=O)C1=C(C)N(C)C(C)=C(C(=O)OC)C1c1ccc(Cl)cc1", "activity, positive = re-replication": "inactive: 16.8%"}, {"smiles": "COC(=O)c1ccc(OCCCCN(C)Cc2ccccc2)cc1", "Potency": "active: 18.4 µM"}, {"smiles": "CCCC(=O)O[C@]1(C(=O)CCl)[C@H](C)C[C@@H]2[C@H]3CCC4=CC(=O)C=C[C@]4(C)[C@@]3(F)C(=O)C[C@@]21C", "activity, positive = re-replication": "inactive: -3.51%"}, {"smiles": "CCc1cc(=O)oc2c(C)c(OCC(=O)NC3CC(C)(C)NC(C)(C)C3)ccc12", "Potency": "inconclusive [activator, single point]"}, {"smiles": "Cc1ccccc1N=Nc1c(O)[nH]c2ccccc12", "activity, positive = re-replication": "inactive: -0.168%"}, {"smiles": "CN(C)c1ccc(/C=C(/C(=O)c2ccc(Cl)cc2Cl)n2cncn2)cc1", "Potency": "inconclusive [activator, single point]"}, {"smiles": "CCN1CC(CN(C)Cc2cn(-c3cccc(C)c3)nc2-c2cccc(F)c2)CC1=O", "note": "(stereo unspecified)", "Potency": "inconclusive [activator, partial curve, poor fit]"}, {"smiles": "O=C(CSCc1cnn(-c2ccccc2)c1-n1cccc1)NCc1cccs1", "activity, positive = re-replication": "inactive: 1.84%"}, {"smiles": "Cc1ccc(S(=O)(=O)C2(C(=O)N3CCCCCC3)CC2)cc1", "activity, positive = re-replication": "inactive: -0.726%"}, {"smiles": "Cc1cccc(NC(=S)NCCC(c2ccccc2)c2ccccc2)c1", "Potency": "inconclusive [activator, single point]"}, {"smiles": "CC(C)(C)OC(=O)N1CCCN(C(=O)c2ccc(Cl)cc2)CC1", "Potency": "inconclusive [activator, partial curve, poor fit]"}, {"smiles": "CS(=O)(=O)c1ccc(C(=O)N2CCN(C(=O)c3ccco3)CC2)cc1", "activity, positive = re-replication": "inactive: -1.13%"}, {"smiles": "Cc1ccc(N=Cc2c(O)ccc3ccccc23)cc1F", "Potency": "inconclusive [activator, single point]"}, {"smiles": "Cn1nc(C(F)(F)F)c2cc(NC(=O)OCc3ccc(F)cc3)sc21", "Potency": "inconclusive [activator, partial curve, poor fit]"}, {"smiles": "COc1ccc2oc(=O)c(C(=O)Oc3ccc(NC(C)=O)cc3)cc2c1", "Potency": "inconclusive [activator, single point]"}]}]}
